In all, about 320,000 compounds went through this assay and about 200 (0.062%) were called active. The inconclusive results got no clear call from the source; some entries with a clear call stand among them for comparison. Calls follow the shape of the dose curve; as a rule, active = well fitted activation curve with a large enough effect; inconclusive = small, poorly fitted or top-dose-only effect; inactive = no such curve, though single readings can be large or run the other way. No potency is given beside an inconclusive call; the fits are too rough.
Assay: qHTS assay for re-activators of p53 using a Luc reporter; also: nearly all actives have a fitted effect of over 45% in size
Conditions: H1299 p53-A138V BP100-luciferase reporter, luminescence, 24 h; series mostly up to 92.2 µM
Outline: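 H1299 (p53-null), stable ts p53-A138V + BP100-Luc; 1000 cells/well, Opti-MEM/10% FBS; cpd 4 pt, 1:5; 24 h, 37 deg C, 5% CO2; detection reagent 10 min RT; luminescence.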
In the case of `Cc1ccc(/C=C2/Sc3ccc(C(=O)N4CCC5(CC4)OCCO5)cc3NC2=O)cc1`, the Potency is reported as “inactive”.
With `CCC(=O)Nc1ccc(-c2ccc(N3CCN(C)CC3)nn2)cc1` the Potency was inconclusive [activator, partial curve, poor fit].
In the case of `Nc1ccccc1C(=O)OCCOc1ccccc1`, the Potency is reported as inconclusive [activator, partial curve, poor fit].
For `CCOP(=O)(OCC)C(NC(=O)c1ccccc1)=C(Cl)Cl`, the Potency was “inactive”.
For `CCC1(CC)C(=N)N(C)C(=O)NC1=O`, the Potency was “inactive”.
In the case of `C=CCn1c(O)c(C(CC)=Nc2cc(OC)ccc2OC)c(=O)[nH]c1=O`, the Potency is reported as “inactive”.
With `O=c1[nH]c(=S)[nH]c(O)c1N=Nc1cccc(S(=O)(=O)N2CCOCC2)c1` the Potency was inconclusive [activator, partial curve, poor fit].
For `Cc1ccc(-c2nn(Cc3ccccc3)cc2C=O)cc1C`, the Potency was inconclusive [activator, full curve, poor fit].
For `COc1cccc(N2C(=O)NC(=O)/C(=C/c3ccc4c(c3)Cc3ccccc3-4)C2=O)c1`, the Potency was “inactive”.
With `O=C1/C(=C/c2cccc([N+](=O)[O-])c2)N2CCC1CC2` the Potency was inconclusive [activator, full curve, poor fit].
With `Cc1cc(N(CCCl)CCCl)ccc1/C=N/NC(=O)c1ccco1` the Potency was “inactive”.
In the case of `CCc1cc2c(=O)n(C(C)C(=O)OC3CCCCC3)cnc2s1` (configuration not stated), the Potency is reported as inconclusive [activator, full curve].
In the case of `Nc1c(C(=O)NCc2ccco2)c2nc3ccccc3nc2n1CCN1CCCCC1`, the Potency is reported as “inactive”.
With `CN1C(=O)NC(=O)/C(=C\c2ccc([N+](=O)[O-])o2)C1=O` the Potency was “inactive”.
In the case of `Cc1cccc(OCC(=O)N2CCN(Cc3cccnc3)CC2)c1`, the Potency is reported as “inactive”.
In the case of `Cn1cnc2cc(NC(=O)c3ccc(Cl)cc3)ccc21`, the Potency is reported as inconclusive [activator, partial curve, poor fit].
In the case of `CCOC(=O)c1cc(C)n(CCc2cnc[nH]2)c1C`, the Potency is reported as inconclusive [activator, single point].
In the case of `Cc1ccc(N2C(=O)NC(=O)/C(=C\c3cc(C)n(-c4ccc(C(=O)O)cc4)c3C)C2=O)cc1`, the Potency is reported as “inactive”.
For `COC1=CCC2([N+](=O)[O-])CN(C)CC1([N+](=O)[O-])C2` (configuration not stated), the Potency was inconclusive [activator, single point].
In the case of `Fc1cccc(CNCCc2c[nH]c3ccccc23)c1`, the Potency is reported as inconclusive [activator, single point].
For `O=c1cc(CN2CCNCC2)nc2sccn12`, the Potency was “inactive”.
In the case of `O=C(c1cccc(C(F)(F)F)c1)C1CCCN(Cc2ccccc2O)C1` (configuration not stated), the Potency is reported as “inactive”.
Potency is read from the fitted curve at half-maximal effect; tags tell the direction and shape of the fitted curve.
